The supplement of paper PMC11417369
This is one part of the list.

These sequences were tested on PfSIP2 AP2 domain 1 (GST-tagged) (assay: gcPBM binding intensity (ln(normalized median fluorescence intensity)); higher = stronger DNA binding).
In short: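 In this array assay, P. falciparum DNA-binding domains with a GST tag, expressed in E. coli, were applied for 1 h to primer-extended double-stranded 36-bp intergenic genomic probes and negative controls on an Agilent 4 × 180k array. Bound protein was visualised with Alexa488 anti-GST antibody at 488 nm. Binding intensity is the highest Masliner-normalised natural-log median intensity across replicate spots of either probe orientation.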
In the case of “TAAATATCAAGACACACACACAAAAGTGAATAAATA [CACACA_site7723]”, the “gcPBM binding intensity (ln)” value is reported as 6.89.
With “AAAGTAAAAGAAAGCACACACACATGGATTTATGTA [CACACA_site5997]” the “gcPBM binding intensity (ln)” value was 6.69.
For “TTCTTTTTAAATTACACACACATATATATATGTATA [CACACA_site3515]”, the “gcPBM binding intensity (ln)” value was 7.33.
In the case of “TATTTACACCCATGCGCACACATAAATAAATAATAG [CACACA_site5350]”, the “gcPBM binding intensity (ln)” value is reported as 8.34.
“TATATATATGTATGTGGTACTTATATTATATACATA [XGTACX_site4550]” was tested, and the “gcPBM binding intensity (ln)” value was 7.32.
With CCATGTAGTGAATAGGTGCATATCAAAAAAAAAAAA the “gcPBM binding intensity (ln)” value was 11.
With “ACAGAAAATAAAATTTGTACATATATAGAATAAAGA [XGTACX_site3014]” the “gcPBM binding intensity (ln)” value was 7.2.
With “ATACATATGGTGGATCGTACATATATATAATATGTA [XGTACX_site8631]” the “gcPBM binding intensity (ln)” value was 6.86.
“TTATACACAAAAAAAAAAATATATATATATATATAT [XGTACX_negctrl_site5]” was tested, and the “gcPBM binding intensity (ln)” value was 9.29.
With “TGTTGTATTGAAGCTAAAAAATGAGGCAAAAAAAAA [CACACA_negctrl_site1189]” the “gcPBM binding intensity (ln)” value was 7.
With “ATTTATGAGTAATACACACACTTGTGGATATATTAC [CACACA_site7735]” the “gcPBM binding intensity (ln)” value was 6.81.
With “TTTATATAATATAAATTTTTTTTGCAGTAATAAAAA [TGCATGCA_negctrl_site570]” the “gcPBM binding intensity (ln)” value was 6.9.
In the case of “ACTTCAAAAAAAAAAAAATATATATATATATATTAT [GTGCAC_negctrl_site158]”, the “gcPBM binding intensity (ln)” value is reported as 7.18.
With “TTTTAAATATGCCATACACACTACTATATAATAAAT [CACACA_site5119]” the “gcPBM binding intensity (ln)” value was 7.15.
With “ATTTTATTTTCATATGAACACACATATATATATTAT [CACACA_site8741]” the “gcPBM binding intensity (ln)” value was 7.29.
With “AACAACCAAAGGCACACACACAAAAAAAAAAATATA [CACACA_site399]” the “gcPBM binding intensity (ln)” value was 7.59.
In the case of “TGATAAGGATGTGAATTACTCAAAGGAAGTAATCAT [CACACA_negctrl_site1432]”, the “gcPBM binding intensity (ln)” value is reported as 6.89.
For “ACAAAACTGTCTTTCACACAGAAATAAAAAAAAAAA [CACACA_site5829]”, the “gcPBM binding intensity (ln)” value was 6.95.
“AAATTTCATGGGTATTGTACATAATTTTATTATATA [XGTACX_site4988]” was tested, and the “gcPBM binding intensity (ln)” value was 7.03.
For “ACATAAGATGAAAAATGTACATTCAAAAAATGAAAT [XGTACX_site3227]”, the “gcPBM binding intensity (ln)” value was 6.91.
“ATATACTTACATATTACACACAATATTTTTAAATGT [CACACA_site3627]” was tested, and the “gcPBM binding intensity (ln)” value was 7.11.
For “TTTTTTTTGGTTTTCATGCACACAATTTATAAATCT [CACACA_site3107]”, the “gcPBM binding intensity (ln)” value was 8.33.
In the case of “AAAGTAAAAAAAAAAACATGCACATATTTACTTTAT [TGCATGCA_site849]”, the “gcPBM binding intensity (ln)” value is reported as 7.2.
“AAGGGAATATACCTTACACACAAAAATGCAGATATA [CACACA_site1451]” was tested, and the “gcPBM binding intensity (ln)” value was 6.78.
In the case of “CTAATCAAAATAAATTAACACACAATTTTAATATTG [CACACA_site7887]”, the “gcPBM binding intensity (ln)” value is reported as 6.58.
In the case of “GTTAATATACTTAATACACACACGAATATATATAAA [CACACA_site1181]”, the “gcPBM binding intensity (ln)” value is reported as 7.04.
“ATTCTATACATATATATACACACGTAGTTTCTATTT [CACACA_site2223]” was tested, and the “gcPBM binding intensity (ln)” value was 6.89.
“TGTAATCTGGAGAAAAGTACACAGTATCTGGTAGCT [XGTACX_site2039]” was tested, and the “gcPBM binding intensity (ln)” value was 6.86.
For “ATTTAAATTATAAAATGTACATTTAACAAATTTTAT [XGTACX_site770]”, the “gcPBM binding intensity (ln)” value was 6.93.
“TAACATTATATATATTGTACATAGTAAATATTATAT [XGTACX_site5421]” was tested, and the “gcPBM binding intensity (ln)” value was 6.9.
With “CTTTTAATGGTGTAAAGTACTTTCTTAAGGTTCAAA [XGTACX_site8423]” the “gcPBM binding intensity (ln)” value was 7.1.
With “TATACAACGTTAAGCACACACAAAAAAAATTTAATA [CACACA_site3086]” the “gcPBM binding intensity (ln)” value was 6.95.
In the case of “ATATATGGGGCGCAGGAAAAGAGTTTTGGAAATAAA [CACACA_negctrl_site1265]”, the “gcPBM binding intensity (ln)” value is reported as 7.31.
“AAGTTATATAAAGGAACACACATTTGATTTTATTTT [CACACA_site6814]” was tested, and the “gcPBM binding intensity (ln)” value was 6.75.
“ATAAAACATAAAAATCGTACAAAGGAGGATATAAGG [XGTACX_site420]” was tested, and the “gcPBM binding intensity (ln)” value was 7.31.
For “TGGAGGTCAGTTCACAGTACCCAGAAAACTCTACGA [XGTACX_site2561]”, the “gcPBM binding intensity (ln)” value was 6.58.
In the case of “AAAATGATGTTAATTACACACATCATCTCATAAACA [CACACA_site3017]”, the “gcPBM binding intensity (ln)” value is reported as 6.9.
For “ATTATTTATTATTTCTGTACGTATAAAAATAACATT [XGTACX_site1671]”, the “gcPBM binding intensity (ln)” value was 7.3.
For “AATTGAAAAATCAGCACACACACAAATACATACATA [CACACA_site3232]”, the “gcPBM binding intensity (ln)” value was 7.09.
For “TGGTAATACACATACACACACACATACACATATATA [CACACA_site7312]”, the “gcPBM binding intensity (ln)” value was 7.32.
With “GCTATATATTACAATCGTACAATATATATATATATA [XGTACX_site6730]” the “gcPBM binding intensity (ln)” value was 9.
With “ATATATATATATATTACACACATGTGCAATTAAAAT [CACACA_site1778]” the “gcPBM binding intensity (ln)” value was 8.92.
For “AATATAAGAATATATACACACATAAATACATACATA [CACACA_site4128]”, the “gcPBM binding intensity (ln)” value was 7.01.
With “TTTTTAAAACCTTACATACACACAAATATATATATA [CACACA_site678]” the “gcPBM binding intensity (ln)” value was 8.49.
“TGTTCCGAAGGTTGTACACACATAGAAATATACATA [CACACA_site3874]” was tested, and the “gcPBM binding intensity (ln)” value was 7.04.
For “TGAATTCATAGCAGTTGTACATTGCATGAAGAAACG [XGTACX_site3312]”, the “gcPBM binding intensity (ln)” value was 7.08.
For “TCTTGTATACGGCATGCATGTTAGCACATACGGACA [TGCATGCA_site146]”, the “gcPBM binding intensity (ln)” value was 6.94.
With “AATACTTTTTATTTAGTGCATAAGAAAATATAAATC [GTGCAC_site9875]” the “gcPBM binding intensity (ln)” value was 9.2.
In the case of “TATAAAATATGTATGAGGAATAAAATTAAAAAAAAA [TGCATGCA_negctrl_site178]”, the “gcPBM binding intensity (ln)” value is reported as 6.68.
In the case of “AAACAAAAAAACTACAGTACTTTTTTCAATTCCCCT [XGTACX_site7541]”, the “gcPBM binding intensity (ln)” value is reported as 6.93.
In the case of “TATATGTTTACTTAATGTACTTACATTTTTATAACA [XGTACX_site1100]”, the “gcPBM binding intensity (ln)” value is reported as 6.91.
For “AAAATTAACCGTAACACACACACATATATATATATA [CACACA_site3964]”, the “gcPBM binding intensity (ln)” value was 9.78.
In the case of “ACATAAATAATAAAAACACACATATGTACTTATATA [CACACA_site8581]”, the “gcPBM binding intensity (ln)” value is reported as 7.01.
With “TTATTAATTTTTATTTTTAAATCACAAAAGATATAA [CACACA_negctrl_site787]” the “gcPBM binding intensity (ln)” value was 6.83.
In the case of “CATATTTGTATATGCACACATAAATTTTTCCATTTC [CACACA_site3467]”, the “gcPBM binding intensity (ln)” value is reported as 7.55.
With “AAATTTTTAAACAGCACACATAAATATAATATATAT [CACACA_site2208]” the “gcPBM binding intensity (ln)” value was 7.27.
